Assay results from PubChem BioAssay AID1159614 (National Center for Advancing Translational Sciences (NCATS), 2016).
In all, about 45,000 compounds went through this assay and about 65 (0.1%) were called active. The call rests on the fitted dose curve; in most records, active means well fitted activation curve with a large enough effect; inconclusive means small, poorly fitted or top-dose-only effect; inactive means no such curve, though single readings can be large or run the other way. Some of the results follow.

What follows are compounds tested against Galactocerebrosidase (Homo sapiens) (UniProt P54803) (assay: A Novel Cell-Based Assay to Identify Small Molecules for B -Galactocerebrosidase). Conditions: 145M-Twi-hGALC-G270D cells (Twitcher mouse brain line with human GALC G270D), HMU-beta-Gal fluorescence, 48 h; series mostly up to 57.5 µM; activation: at the top concentration.
Procedure, shortened: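 Fluorescence readout: HMU-β-gal cleavage by mutant GALC (0.1 mM final, citrate/phosphate pH 5.2 with 1 mg/mL taurocholate), stopped with carbonate/bicarbonate plus Triton X-100. Cells: murine Twitcher 145M-Twi expressing human G270D GALC; qHTS for activators.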
Further: 0% is about no effect; nearly all actives have a fitted effect of over 65% in size.

Sequence of UniProt P54803 (P54803 whole entry, looked up): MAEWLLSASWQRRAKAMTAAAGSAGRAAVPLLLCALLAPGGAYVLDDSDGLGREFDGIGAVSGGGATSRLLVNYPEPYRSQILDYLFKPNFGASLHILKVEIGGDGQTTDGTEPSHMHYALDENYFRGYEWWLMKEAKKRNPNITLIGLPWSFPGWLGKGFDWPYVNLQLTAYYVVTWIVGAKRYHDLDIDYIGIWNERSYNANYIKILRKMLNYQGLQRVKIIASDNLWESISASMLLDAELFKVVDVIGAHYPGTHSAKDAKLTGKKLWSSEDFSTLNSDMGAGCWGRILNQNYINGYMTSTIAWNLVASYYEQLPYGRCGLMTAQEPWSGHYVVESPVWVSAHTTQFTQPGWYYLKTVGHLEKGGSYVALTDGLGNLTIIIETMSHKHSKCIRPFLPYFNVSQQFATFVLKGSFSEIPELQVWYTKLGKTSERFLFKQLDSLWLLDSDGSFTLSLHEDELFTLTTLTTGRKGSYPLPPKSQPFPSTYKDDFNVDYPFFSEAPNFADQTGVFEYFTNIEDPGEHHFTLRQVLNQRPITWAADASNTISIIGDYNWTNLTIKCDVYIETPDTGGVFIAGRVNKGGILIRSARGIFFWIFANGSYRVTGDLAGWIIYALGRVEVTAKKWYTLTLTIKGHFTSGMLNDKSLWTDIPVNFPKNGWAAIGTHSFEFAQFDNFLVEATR

activation, inactive:
Cc1cc(OCCOCC[N+](C)(C)Cc2ccccc2)ccc1C(C)(C)CC(C)(C)C -8.37%
O=C(Nc1cc(F)ccc1F)N1CCC(CN2CCOCC2)CC1 -17.4%
COc1ccc(-n2cc(-c3ccccc3)c3c(NC4CCCCC4)ncnc32)cc1 -9.9%
Cc1ccc(-c2nc3cc(NC(=O)c4cc5ccccc5o4)ccc3o2)cc1 -24.1%
CCOC(=O)C1=C(C)NC(C)=C(C(=O)OCC)C1c1ccccc1/C=C/C(=O)OC(C)(C)C -13.5%
COc1ccc(S(=O)(=O)NCCc2sc(C)nc2C)cc1F -47.2%
Cn1c(=O)n(C/C=C/c2ccccc2)c(=O)c2c1nc1n2CCN1c1ccc(F)cc1 -2.79%
Cc1ccc2c(CC(=O)Nc3cccc(Cl)c3C)coc2c1 -19.4%
Cc1cccc(OCCCCn2c(C3CC(=O)N(c4ccccc4Cl)C3)nc3ccccc32)c1 (stereo unspecified) -0.126%
CCOc1ccc(-n2c(SCC(=O)Nc3cccc(Cl)c3)nc3c(oc4ccccc43)c2=O)cc1 -7.11%
COc1ccc(C(=O)CC2(O)C(=O)Nc3c(C)cccc32)c(OC)c1OC (stereo unspecified) -6.45%
CN1CCN(c2ncc3c(n2)CCN(Cc2cc(Br)cs2)C3)CC1 -6.73%
CCOc1ccc(-c2cnc(NCc3ccc(C(F)(F)F)cc3)n2C)cc1 -11.4%
CCN1C(=O)c2ccccc2Sc2ccc(NC(=O)COc3ccc(Cl)cc3)cc21 -17.2%
CCc1ccc(NC(=O)CSc2nc3c([nH]c4ccccc43)c(=O)n2-c2ccc(C)cc2)cc1 14.3%
Cc1ccc(CNC(=O)CCS(=O)(=O)c2cc3c4c(c2)CCN4C(=O)CC3)cc1 3.3%
O=C(Nc1ccc(Cl)cc1)c1cnn2c1NC(c1ccccc1)=CC2c1ccccc1 (stereo unspecified) -12.4%
COc1cccc(CN(C(=O)COc2ccc(Cl)c(C)c2)C2CCS(=O)(=O)C2)c1 (stereo unspecified) -12.3%
O=C(NCc1ccccc1)c1ccc2c(c1)N(Cc1ccccc1F)C(=O)c1ccccc1S2=O (stereo unspecified) -8.95%
Cc1c(Cl)cccc1-n1ncc(C(=O)NCCN2CCN(C)CC2)c1C1CCN(C(=O)OC(C)(C)C)CC1 15.5%
O=C(Cn1c(=O)n(-c2ccccc2)c(=O)c2c3c(sc21)CCC3)c1ccc(F)cc1 -14.2%
Cc1ccc(Sc2ccc(N3CCC(C(=O)Nc4cc(C)cc(C)c4)CC3)nn2)cc1 -9.78%
Cc1ccc(C2CC(=O)n3nc(-c4ccc(Cl)cc4)nc3S2)cc1 (stereo unspecified) -3.41%
COc1ccc(C(=O)CC(=O)c2ccc(C(C)(C)C)cc2)cc1 -14.3%
COc1cccc(N2CCN(C(=O)c3cnc4c(-c5ccccc5)c(C)nn4c3C)CC2)c1 -17.1%
COc1ccccc1C(=O)Nc1c(C(=O)Nc2cc(Cl)ccc2C)sc2nc(C)cc(C)c12 -9.87%
COc1cccc(CN2C(=O)c3ccccc3Sc3ccc(C(=O)NCc4ccccc4)cc32)c1 -9.4%
O=C(Nc1ccccc1)c1cnc(N2CCCCC2)c2ccccc12 -12.5%
COc1ccc(-c2cc(C)no2)cc1S(=O)(=O)N1CCN(c2cccc(C)c2)C(C)C1 (stereo unspecified) -33.6%
Cc1ccccc1NC(=O)NCCc1c[nH]c2ccccc12 -14.6%
CCOC(=O)c1scc(-c2ccccc2)c1S(=O)(=O)N1CCN(c2ccc(Cl)cc2)CC1 -15.1%
CCN(CC)c1cc(C)c2cc(NC(=O)c3ccc(OC)c(OC)c3)ccc2n1 -13.6%
Cc1ccc(NC(=O)c2ccc(NC(=O)N3CCSc4ncccc43)cc2)c(Cl)c1 -13.5%
Cc1nc(SCC(=O)N2CCN(c3ccccc3)CC2)[nH]c(=O)c1C -10.8%
COc1cccc2cc(C(=O)N3CCN(c4cc(C)ccc4C)CC3)c(=O)oc12 -14%
Fc1ccccc1Nc1c2c(nc3ccccc13)CCC2 -10.5%
CCc1ccccc1NC(=O)CN(C)S(=O)(=O)c1cccc2nsnc12 -30.4%
COc1ccc(-c2ccc(NS(=O)(=O)c3ccc(NC(C)=O)cc3)cc2)nn1 -11.5%
CCN(CC)c1ccc(NC(=O)c2c(C)nn(-c3ccc(F)cc3)c2-n2cccc2)c(C)c1 -38.8%
COc1ccc(OC)c(NC(=O)c2c(NCc3cccs3)sc3c2CCCCC3)c1 -10.3%
O=C(CN1C(=O)C2(SCC(=O)N2c2ccc(F)c(F)c2)c2ccccc21)NCCc1ccccc1 (stereo unspecified) -25.8%
COc1ccc(NC(=O)c2oc3ccc(S(=O)(=O)N4CCOCC4)cc3c2C)c(OC)c1 1.09%
COc1ccc(CCNC(=O)c2cnn(-c3ccc(F)cc3)c2C2CCN(C(=O)OC(C)(C)C)CC2)cc1OC -14.6%
COc1ccc(N2CCN(C(=O)c3cc4c(=O)n(Cc5cccnc5)ccc4nc3C)CC2)cc1 -8.48%
CCOc1cc(C(c2c(C)[nH]n(-c3ccccc3)c2=O)c2c(C)[nH]n(-c3ccccc3)c2=O)ccc1O -4.35%
COc1ccc(-c2noc(N3CCC(C(=O)Nc4cccc(C)c4C)CC3)n2)cc1 -11.3%
CCc1ccc(NC(=O)CSc2nc3nc(C)cc(C)n3n2)cc1 -7.57%
CCOc1cc(CNC(=O)c2cc(-c3ccccc3)n[nH]2)cc(OCC)c1OCC -6.57%
COc1ccc(CCNC(=O)c2ccc3c(c2)CCN3S(=O)(=O)c2ccccc2)cc1 -10.8%
CCOc1ccc(/C=C/c2nc(C#N)c(N3CCN(CC)CC3)o2)cc1 -3.39%
O=C(NCCc1ccc(F)cc1)C(=O)NCC(c1ccco1)S(=O)(=O)c1ccccc1 (stereo unspecified) 5.55%
CCN(CC)S(=O)(=O)c1ccc(NC(=O)Cn2ncc3c([nH]c4ccccc43)c2=O)cc1 -4.89%
Cc1[nH]c2ccc(C(=O)N3CCN(c4ccccc4F)CC3)cc2c1C -4.35%
CC(Oc1ccccc1)C(=O)Nc1ccc(C(=O)OCc2cc(=O)n3nc(C(C)C)sc3n2)cc1 (stereo unspecified) -6.64%
Cc1ccccc1NC(=O)CSc1c(C(C)C)cnc2c1c(=O)n(C)c(=O)n2C -2.38%
Cc1cc(F)ccc1NC(=O)c1csc2c1CCC(C)C2 (stereo unspecified) -7.5%
Cc1cc(C)cc(OCC(=O)Nc2nc(-c3ccc(F)cc3)ns2)c1 5.22%
CCOc1ccccc1NC(=O)CSc1nc2ccccc2nc1N1CCOCC1 -8.06%
COC(=O)c1cc(NS(=O)(=O)c2ccc3c(c2)OCCO3)ccc1Cl -52.2%
COc1ncnc(NS(=O)(=O)c2ccc(N)cc2)c1OC -17.3%
CC(=O)OCC(=O)[C@@]1(O)[C@H](C)C[C@H]2[C@@H]3CCC4=CC(=O)C=C[C@]4(C)[C@@]3(F)[C@@H](O)C[C@@]21C -6.23%
